Consider 88 sequences from the supplement of paper PMC11417369.

± gives the standard deviation of the averaged measurements. The list shows a part of the results.

This assay deals with PfAP2-LT AP2 domain (GST-tagged). The assay is described as follows: gcPBM binding intensity (ln(normalized median fluorescence intensity)); higher = stronger DNA binding. The essentials: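 Binding intensity is the highest Masliner-normalised natural-log median intensity over replicate spots in either probe orientation. To obtain it, GST-tagged P. falciparum DNA-binding domains made in E. coli were incubated for 1 h on an Agilent 4 × 180k array of primer-extended double-stranded 36-bp intergenic genomic probes plus negative controls. Detection used Alexa488 anti-GST antibody with scanning at 488 nm.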
For the sequence “TCCTTAAAATATGGTTGTACGTACATCCTAGGTGTT [XGTACX_site7068]”, the “gcPBM binding intensity (ln)” value was determined as 8.86 ± 0.45.
Take “AAAAAAAAGAAAAAAAAAAAAAAAAAAAAAAAAAAA [CACACA_negctrl_site489]”: the “gcPBM binding intensity (ln)” value amounted to 8 ± 0.35.
With “CGCACACGCAGACACACACACACATATAAATAAATA [CACACA_site7101]” the figure was 9.74 ± 0.37; with “TTTTTTTTTTTGGCTAGTACATATGTATTTAAAATG [XGTACX_site7770]”, 8.6 ± 0.47.
Turning to “GGTGAAATTATTTCTACATGCAGAAATAATTAATTA [TGCATGCA_site194]”, the “gcPBM binding intensity (ln)” value turned out to be 8.52 ± 0.37.
As to “AATTTAATATAATGCACACATAAAAAAAAAATCAAA [CACACA_site1]”, the “gcPBM binding intensity (ln)” value came to 8.93 ± 0.37.
“ACATAAATAATAAAAACACACATATGTACCTATATA [CACACA_site6982]”: the “gcPBM binding intensity (ln)” value is 9.04 ± 0.47.
Then “AAATTATTTCTTTGCGCATGTAGCTTTTATACTATT [TGCATGCA_site819]”, with 9.21 ± 0.49; and “AATACATGCTAAAAACGTACACGTATAAAATTATAT [XGTACX_site3169]”, with 8.95 ± 0.5.
Then “AAAAAAAAAAAAAATTGTACATTAAATTAAAAGAAA [XGTACX_site8708]”, with 8.3 ± 0.71; and “AAGAAAATATAAAATGCACACTATAAATTGTATATA [CACACA_site7928]”, with 8.9 ± 0.38.
Turning to “AAAAAAAAAAATACTTGTACTTATATAATATATTAT [XGTACX_site8333]”, the “gcPBM binding intensity (ln)” value worked out at 8.51 ± 0.53.
In the case of “TGTTGTTCCAATTTTTGTACATAAAACATATATATA [XGTACX_site5719]”, the “gcPBM binding intensity (ln)” value worked out at 8.69 ± 0.43.
With “TATATATATATTTATACACACACATATATTTATATA [CACACA_site8054]” the figure was 9.13 ± 0.29; with TTTTTAATATATTAGGTGCACAATAATACACTTTAT, 8.74 ± 0.43; with “ATTAGTATAATGTAACTTAGTTAATAGTGCTAATAT [CACACA_negctrl_site764]”, 8.93 ± 0.4.
Turning to “CAAAAGTAAGCACGCACACACAACATGAAATAAAAT [CACACA_site165]”, the “gcPBM binding intensity (ln)” value is 9.96 ± 0.42.
“TATACACTTATTGGTGGTACAATATATAAATATATG [XGTACX_site3289]”: the “gcPBM binding intensity (ln)” value came out at 8.66 ± 0.34.
On to “TTTTGATCTGAAGGAACCTAAAAAGGGAAGAGAAAA [CACACA_negctrl_site1656]”, for which the “gcPBM binding intensity (ln)” value was 8.45 ± 0.52.
Take “AAAAAAAACACGCGCACACACACACCCACCCACCGA [CACACA_site2206]”: the “gcPBM binding intensity (ln)” value was 10.32 ± 0.078.
For “ACAAAATAAAACATCTGTACATATTATTATTATAAG [XGTACX_site4802]”, the “gcPBM binding intensity (ln)” value came to 8.7 ± 0.38.
With “TATATTTATAACAACACACACAGATCATAAAACTGC [CACACA_site7086]”, the “gcPBM binding intensity (ln)” value was 9.34 ± 0.27.
For the sequence “AAAAAAAAAAAAAAAACACACACATGCACATCATAT [CACACA_site8083]”, the “gcPBM binding intensity (ln)” value was found to be 9.56 ± 0.33.
Then “ATATAAAATATTACGTGTACACATAAATAAAAATAA [XGTACX_site3746]”, with 9.06 ± 0.47; and “ATATATATAAATAATTGTACATAATAATAAAATATA [XGTACX_site4839]”, with 8.8 ± 0.45.
Then “ATATTTTGTAACTATACACACATATTTATATTATAA [CACACA_site7433]”, with 8.83 ± 0.44.
With “CAAGTAGATATTATACGTACATATATATATATATAT [XGTACX_site8349]” the figure was 9.65 ± 0.25; with “TTTTATACATATTTTACACACTAAAATATACCTATA [CACACA_site6286]”, 8.79 ± 0.49.
Take “TAAAAAATATACATTCGTACATATATATTATATATA [XGTACX_site7918]”: the “gcPBM binding intensity (ln)” value came out at 8.61 ± 0.43.
With “GAAAAAAAAGCTTGCACACGTATTTGCTTTATGTAT [CACACA_site4931]”, the “gcPBM binding intensity (ln)” value stood at 9.22 ± 0.3.
Take “TACATATATATATTATGTACATAAGGTTTGAGTTCA [XGTACX_site2726]”: the “gcPBM binding intensity (ln)” value was 8.79 ± 0.45.
Regarding “TTTTTGGTATTATTGTGTACTTATAAATAATATAAT [XGTACX_site4019]”, the “gcPBM binding intensity (ln)” value turned out to be 8.62 ± 0.36.
As for “AAAAAAAAATATACATATATATATATATATATATAT [CACACA_negctrl_site1763]”, the “gcPBM binding intensity (ln)” value turned out to be 9.78 ± 0.14.
For the sequence “ATATATATATATATTACACACTTTTTCTTTTTTTTT [CACACA_site2780]”, the “gcPBM binding intensity (ln)” value was determined as 9.2 ± 0.32.
With “ATAATTCCAAGAATTTCATATATCTGAATTTTAGGT [GTGCAC_negctrl_site283]” the figure was 8.53 ± 0.4.
For the sequence “AATAAACATAAATAAAAATTATAAAATATATATATG [CACACA_negctrl_site1709]”, the “gcPBM binding intensity (ln)” value was found to be 8.64 ± 0.51.
With “TTTACATTTCAGTAGACACACAAAAAATAATACTAA [CACACA_site512]” the figure was 8.76 ± 0.43; with “TCATACATGTATATGTGTACATATAATGTATATTCC [XGTACX_site6082]”, 8.84 ± 0.4; with “TTATATTCTTTTCTCTTTCTACTTTTTTTTTTTTTT [XGTACX_negctrl_site317]”, 8.45 ± 0.69.
Then “AAGAAAAACTTATATATATATATATATATATATATA [TGCATGCA_negctrl_site466]”, with 9.79 ± 0.11; and “TATAAATATTTATGTACACACATATACATGTTGAAT [CACACA_site5684]”, with 9.12 ± 0.47.
Take “AAAAAAAAAAAAAAAAGTACAAAAAGAAGAAAAAAA [XGTACX_site6521]”: the “gcPBM binding intensity (ln)” value was 8.59 ± 0.53.
Consider “TTTTTTTTTTTTTTTTTTTTTTTATGTTCTTAAAAA [GTGCAC_negctrl_site62]”, for which the “gcPBM binding intensity (ln)” value came to 8.2 ± 0.27.
Then “TTTTTTTTTTTTACGTGTACATAAATGTTAAGTAAT [XGTACX_site3901]”, with 8.58 ± 0.47.
With “AAAATATAGGTATGCACACACATATACTTCTGTGCA [CACACA_site1409]” the figure was 9.47 ± 0.34; with “TAAATACAGAGGAAAATACACACGTATATATATAAA [CACACA_site3410]”, 9.21 ± 0.45; with “AAAAAAAATTTAATTGCACACAGGAAAATATAATTT [CACACA_site3810]”, 8.78 ± 0.38.
As for “TTAATACCCAGACACACACACACAAAATAAAATACA [CACACA_site7968]”, the “gcPBM binding intensity (ln)” value worked out at 10.1 ± 0.48.
Turning to “TATAAATATACAAACACACATACAAACATATATATA [CACACA_site1120]”, the “gcPBM binding intensity (ln)” value amounted to 9.24 ± 0.37.
With “CAATGTTAACATATTACACACATATGTATTTATAAC [CACACA_site7314]”, the “gcPBM binding intensity (ln)” value was determined as 9.07 ± 0.33.
As for “TAAATATATAATAAATGTACATATTAATATTATGGT [XGTACX_site1498]”, the “gcPBM binding intensity (ln)” value turned out to be 8.77 ± 0.48.
Take “ATATGATCATTTTATCATTTTGCTTTTTCTTTTTTT [CACACA_negctrl_site1325]”: the “gcPBM binding intensity (ln)” value turned out to be 8.69 ± 0.48.
Take “AATTTTGGAACGTGCACACATATGTAATATATATAT [CACACA_site3067]”: the “gcPBM binding intensity (ln)” value came out at 9.21 ± 0.32.
With “ATCGTGTTAAATGTTGTGCACATATAAATTACAAAA [GTGCAC_site9822]” the figure was 8.87 ± 0.48; with “TTTTTTTAATGATATTGTACATTAATAAAAAATATG [XGTACX_site1719]”, 8.12 ± 0.59.
Take “ATTTGATATATAATAATACACACTTACATAATTAAT [CACACA_site290]”: the “gcPBM binding intensity (ln)” value came to 8.87 ± 0.46.
With “TCTTTTTCAAGATGACGTACTTAGATTAATATAAAA [XGTACX_site3931]” the figure was 8.21 ± 0.33; with “ATTTTATTTTCATATGAACACACATATATATATTAT [CACACA_site8741]”, 9.4 ± 0.4.
With “CTGCGTTTAATATGCGTGCACCTTGGTTTTATATCT [GTGCAC_site9525]” the figure was 9.23 ± 0.36; with “AACAACCAAAGGCACACACACAAAAAAAAAAATATA [CACACA_site399]”, 9.71 ± 0.64; with “TTTTAAATATGCCATACACACTACTATATAATAAAT [CACACA_site5119]”, 8.69 ± 0.45.
As to “AAAAAAAAAAAATATTGTAGAATATGATGACTTTGT [GTGCAC_negctrl_site554]”, the “gcPBM binding intensity (ln)” value turned out to be 8.52 ± 0.54.
Then “ACATAAGATGAAAAATGTACATTCAAAAAATGAAAT [XGTACX_site3227]”, with 8.97 ± 0.42; and “ACAAAACTGTCTTTCACACAGAAATAAAAAAAAAAA [CACACA_site5829]”, with 8.44 ± 0.55; and “TGATAAGGATGTGAATTACTCAAAGGAAGTAATCAT [CACACA_negctrl_site1432]”, with 8.73 ± 0.49.
“AAATTTCATGGGTATTGTACATAATTTTATTATATA [XGTACX_site4988]”: the “gcPBM binding intensity (ln)” value is 8.69 ± 0.36.
As to “TATTTACACCCATGCGCACACATAAATAAATAATAG [CACACA_site5350]”, the “gcPBM binding intensity (ln)” value worked out at 9.23 ± 0.42.
Then “TATATATATGTATGTGGTACTTATATTATATACATA [XGTACX_site4550]”, with 8.71 ± 0.44; and “ATACATATGGTGGATCGTACATATATATAATATGTA [XGTACX_site8631]”, with 8.94 ± 0.44; and “ACAGAAAATAAAATTTGTACATATATAGAATAAAGA [XGTACX_site3014]”, with 8.79 ± 0.48.
Then CCATGTAGTGAATAGGTGCATATCAAAAAAAAAAAA, with 8.69 ± 0.59; and “AGAGAAAAAAAAAATTGTACGTATGTAATAATATGC [XGTACX_site2981]”, with 9.06 ± 0.52; and “AGATATTATTTATATATTTATATATATATATAGATA [TGCATGCA_negctrl_site77]”, with 8.55 ± 0.39.
With “TAAATATCAAGACACACACACAAAAGTGAATAAATA [CACACA_site7723]” the figure was 9.53 ± 0.38; with “TTCTTTTTAAATTACACACACATATATATATGTATA [CACACA_site3515]”, 9.32 ± 0.41; with “AAAGTAAAAGAAAGCACACACACATGGATTTATGTA [CACACA_site5997]”, 9.5 ± 0.28.
As for “TGTTGTATTGAAGCTAAAAAATGAGGCAAAAAAAAA [CACACA_negctrl_site1189]”, the “gcPBM binding intensity (ln)” value is 8.51 ± 0.51.
With “ATTTATGAGTAATACACACACTTGTGGATATATTAC [CACACA_site7735]” the figure was 9.07 ± 0.35.
With “ACTTCAAAAAAAAAAAAATATATATATATATATTAT [GTGCAC_negctrl_site158]” the figure was 8.54 ± 0.33.
Then “TTTATATAATATAAATTTTTTTTGCAGTAATAAAAA [TGCATGCA_negctrl_site570]”, with 7.96 ± 0.39; and “TTATACACAAAAAAAAAAATATATATATATATATAT [XGTACX_negctrl_site5]”, with 9.7 ± 0.15; and “CTTTTAATGGTGTAAAGTACTTTCTTAAGGTTCAAA [XGTACX_site8423]”, with 8.43 ± 0.38.
As to TTTAATTATTAAATGGTGCACTTGAAATATAAAAAT, the “gcPBM binding intensity (ln)” value was found to be 8.54 ± 0.48.
Then “TATACAACGTTAAGCACACACAAAAAAAATTTAATA [CACACA_site3086]”, with 9.12 ± 0.4; and “AAGTTATATAAAGGAACACACATTTGATTTTATTTT [CACACA_site6814]”, with 8.76 ± 0.52; and “ATATATGGGGCGCAGGAAAAGAGTTTTGGAAATAAA [CACACA_negctrl_site1265]”, with 8.98 ± 0.55.
With “ATTTAAATTATAAAATGTACATTTAACAAATTTTAT [XGTACX_site770]” the figure was 8.45 ± 0.47.
Consider “TGTAATCTGGAGAAAAGTACACAGTATCTGGTAGCT [XGTACX_site2039]”, for which the “gcPBM binding intensity (ln)” value was found to be 8.87 ± 0.38.
